Data taken from publication PMC4336329 (PLoS ONE, 2015).
Hit rate of the full screen: of about 310,000 compounds, about 14,000 (4.5%) showed an effect of 50% or more. The effect is printed as a negative number. The list shows a part of the results.

Target: human ether-à-go-go-related gene (hERG) potassium channel (human, UniProt Q12809)
Assay: primary screen, population patch clamp on CHO cells stably expressing hERG
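Further: peak tail current of the secondary pulse compared with the same well before compound.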

Sequence of human ether-à-go-go-related gene (hERG) potassium channel (Q12809 whole entry, looked up): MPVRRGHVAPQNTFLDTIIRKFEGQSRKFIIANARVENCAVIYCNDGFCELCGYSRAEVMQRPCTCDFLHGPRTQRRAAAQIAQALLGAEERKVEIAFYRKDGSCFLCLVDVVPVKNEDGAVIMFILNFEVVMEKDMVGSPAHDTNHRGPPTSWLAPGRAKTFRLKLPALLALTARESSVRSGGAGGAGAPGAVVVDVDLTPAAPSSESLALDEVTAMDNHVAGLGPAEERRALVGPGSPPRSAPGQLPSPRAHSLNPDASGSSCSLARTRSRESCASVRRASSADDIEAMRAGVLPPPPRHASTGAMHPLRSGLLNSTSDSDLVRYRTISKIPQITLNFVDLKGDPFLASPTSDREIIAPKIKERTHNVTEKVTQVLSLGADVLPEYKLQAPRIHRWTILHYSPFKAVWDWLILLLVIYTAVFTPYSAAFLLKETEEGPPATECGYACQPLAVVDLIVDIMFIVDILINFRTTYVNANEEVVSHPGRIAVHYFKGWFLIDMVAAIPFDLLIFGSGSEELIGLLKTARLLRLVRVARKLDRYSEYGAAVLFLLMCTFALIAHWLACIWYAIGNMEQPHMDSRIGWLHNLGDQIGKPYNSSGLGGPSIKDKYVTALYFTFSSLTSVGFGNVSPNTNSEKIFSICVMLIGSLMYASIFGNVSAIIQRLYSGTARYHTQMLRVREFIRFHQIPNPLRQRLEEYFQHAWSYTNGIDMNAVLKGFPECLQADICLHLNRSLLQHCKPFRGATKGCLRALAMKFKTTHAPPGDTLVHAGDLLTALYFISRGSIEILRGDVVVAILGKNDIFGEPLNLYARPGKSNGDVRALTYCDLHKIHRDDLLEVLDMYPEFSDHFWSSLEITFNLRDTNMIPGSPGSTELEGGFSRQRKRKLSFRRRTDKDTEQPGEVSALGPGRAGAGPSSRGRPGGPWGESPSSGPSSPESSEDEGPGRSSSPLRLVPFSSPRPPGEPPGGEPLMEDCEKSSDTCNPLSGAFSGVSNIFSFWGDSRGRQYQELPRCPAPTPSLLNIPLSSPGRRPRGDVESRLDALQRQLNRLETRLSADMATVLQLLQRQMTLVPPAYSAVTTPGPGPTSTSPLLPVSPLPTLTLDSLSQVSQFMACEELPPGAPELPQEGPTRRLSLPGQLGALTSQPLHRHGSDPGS

SMILES	hERG current change (%, negative = inhibition) at 10uM [%]
CCc1ccc(-c2cc(C)no2)cc1S(=O)(=O)NC(C)Cc1ccco1 (centres unmarked)	-19.4
Cc1nc2sc(C(c3cccc(F)c3)N3CCOCC3)c(O)n2n1 (centres unmarked)	9.86
COC(=O)c1sc(-c2ccccc2)cc1NC(=O)C1CC1	11.3
COCCCn1ccc(O)c(Cc2ccc(F)cc2)c1=O	1.69
CC(=O)Nc1ccc(C(c2c(O)c3ccccc3oc2=O)c2c(C)n(C)n(-c3ccccc3)c2=O)cc1 (centres unmarked)	-6.59
CCC1(c2ccccc2)NC(=O)N(CC(=O)Nc2ccc(S(=O)(=O)Nc3ncccn3)cc2)C1=O (centres unmarked)	-2.42
CCOc1ccc(N(CC)S(=O)(=O)c2ccc3c(c2)n(C)c(=O)c(=O)n3C)cc1	-14.1
CN(C)CCNC(=O)c1sc2nc(-c3ccccc3)cc(C(F)(F)F)c2c1N	-57.8
CCn1cnc2c1c(=O)n(CC(=O)NN)c(=O)n2Cc1ccccc1	18.7
CN(CC(=O)Nc1c(Cl)cccc1Cl)C(=O)c1cc2ccccc2cc1O	-4.77
CC(=O)c1c(O)c2ccccc2n(C(C)C)c1=O	11.7
CC(C)OC(=O)CC(=O)CSc1nc(-c2ccc(F)cc2)cc(-c2ccccc2)c1C#N	23
CC(C)(C)OC(=O)N1CCC(Cc2cc(-c3ccc(Cl)cc3)no2)(C(=O)O)CC1	-3.82
Cc1cc(C)cc(NC(=O)c2sc3nc(C)cc(C)c3c2N)c1	21.6
c1ccc2nc3c(nc2c1)CCCC3	17.2
O=C(NCCCN=C1NS(=O)(=O)c2ccccc21)c1ccc(F)cc1	11.1
O=C(OCc1nc2scc(-c3ccccc3)c2c(=O)[nH]1)c1cc(Cl)ccc1[N+](=O)[O-]	5.84
Cc1cccc(NC(=O)NCCN2CCCCC2)c1	-25
O=C(NC(=S)Nc1ccc(N2CCOCC2)cc1)c1cccc(Cl)c1Cl	7.84
CC1CN(C(=O)N2c3ccccc3Sc3ccccc32)C(C)CC1=O (centres unmarked)	-5.88
COc1ccc(/C=N/NC(=O)c2cc(-c3cccn3C)n[nH]2)cc1OC	-27.5
CCOC(=O)C1=C(C)OC(N)=C(C#N)C1c1cc(SCC)oc1C (centres unmarked)	3.49
CC1(C)CNc2cc(N)ccc2S1	11.3

SMILES	hERG current change (%, negative = inhibition) at 10uM [%]
Cc1ccc(NC(=S)N2CCN(CCN3C(=O)c4cccc5cccc(c45)C3=O)CC2)cc1	-1.29
Cc1c(NC(=O)CN2C(=O)NC(C)(c3ccc(Cl)cc3)C2=O)c(=O)n(-c2ccccc2)n1C (centres unmarked)	-7.84
COCCn1cnc2c1c(=O)[nH]c(=O)n2Cc1ccccc1	25.6
CC1CCCCN1C(=O)CSc1nnc(-c2c[nH]c3ccccc23)o1 (centres unmarked)	-5.43
O=C1N(C2CCCC2)C[C@@H]2C[C@@H](c3cn[nH]c3-c3ccc(Cl)cc3)N3CCC[C@@]123	-37.8
COCC(=O)OCn1nnc2ccccc2c1=O	-3.35
C=CCn1c(NCCO)nc2sc3c(c2c1=O)CCC3	4.35
O=C(CSc1ccc2c(c1)OCCO2)Nc1cccnc1Cl	9.12
CCC(C(=O)OCC(=O)Nc1cc(OC)ccc1OC)c1ccccc1 (centres unmarked)	5.95
CCc1nccn1S(=O)(=O)c1ccc(Br)cc1Br	-23.4
COc1ccc(N(CC(=O)N/N=C(\C)c2ccc(C)cc2)S(=O)(=O)c2ccccc2)cc1	23.7
CC1(S(=O)(=O)[O-])CC(=O)c2ccccc2C1=O.O.[Na+] (centres unmarked)	-26.7
O=C(Cn1ncc2c3ccccc3n(Cc3cccc(Cl)c3)c2c1=O)NCC1CCCO1 (centres unmarked)	0.334
Br.OCCn1c(-c2ccc3c(c2)OCO3)csc1=Nc1ccccc1	-20.2
CSc1ncc(/C=C2/C(=O)NC(=O)N(C3CCCCC3)C2=O)cn1	-4.51
O=C(NCc1ccccn1)C1Nc2ccc(OC(F)(F)F)cc2C2C=CCC12 (centres unmarked)	-1.6
C=CCn1c(SCc2ccc(OC)cc2)nnc1-c1cccnc1	-26.9
O=C(CN1CCN(S(=O)(=O)c2ccc(Cl)cc2)CC1)c1ccc(O)c(O)c1	-59.5
C/C=C/c1ccc(OCC(=O)Nc2cc(OC)c(OC)c(OC)c2)c(OC)c1	-3.16
COc1ccc(C(=O)N(C)Cc2ccc(C)o2)cc1OC1CCN(C(C)=O)CC1	3.84
CC(C)Oc1ccc(NC(=O)CCC(=O)O)cc1	-0.196
CCn1cc(C(=O)NCCC(=O)NCCCO)c(=O)c2cc3c(cc21)OCO3	20.1
CN(C)CCC(=O)c1ccc(Cl)cc1.Cl	2.48

SMILES	hERG current change (%, negative = inhibition) at 10uM [%]
CS(=O)(=O)c1ncc(Cl)c(C(=O)Nc2ccc(OC(F)F)cc2)n1	9.65
COc1ccc(C(=O)NNC(=O)c2cc(C)nc3ccccc23)cc1	-0.237
CCC(C)NC(=O)C1CN(S(=O)(=O)c2ccccc2)CCN1S(=O)(=O)c1ccccc1 (centres unmarked)	-18.3
C=CCOC(=O)C1=C(C)NC(C)=C(C(=O)OCC=C)C1c1ccc(C)o1	-27.4
CCCCC(=O)Nc1cccn2ncnc12	10.8
Cc1ccc(F)c(NC=C2C(=O)OC(C)(C)OC2=O)c1	-1.52
Cc1cc(C)c(C(=O)C(C)OC(=O)c2ccccn2)cc1C (centres unmarked)	16.1
CN(CC(=O)Nc1cccc(F)c1)C(=O)c1cc(-c2cccs2)nn1-c1ccccc1	-24.3
CCOc1ccccc1C(=O)NC1CC2CCCC(C1)N2C1CC1 (centres unmarked)	-19
CCCCOC(=O)Nc1ccc(S(=O)(=O)Nc2cc(C)nc(C)n2)cc1	17.8
COc1ccc(-n2c(-c3ccc(Cl)cc3)c[nH]c2=S)cc1	27.9
CC(C)OC(=O)/C(=C\c1ccccc1)NC(=O)c1ccccc1	3.64
CC(C)(C)c1cc(C=C(C#N)C#N)cc(C(C)(C)C)c1O	19.1
COc1cc(CN2CC(=O)N(c3ccc(C)cc3)C2=S)cc(OC)c1OC	7.46
O=C(O)/C(=C\c1ccccc1)c1ccccc1	-0.424
CC(OC(=O)Cn1cnc2ccccc2c1=O)C(=O)N(C)c1ccccc1 (centres unmarked)	-3.19
NS(=O)(=O)c1ccc(CNC(=O)Cn2nc(C(F)F)cc2C(F)F)cc1	9.18
C=CCn1c(SCC(=O)Nc2ccc3c(c2)CCC3)nc2ccccc2c1=O	-21.6
CCOC(=O)c1ccc(NC(=O)CC2SCCNC2=O)cc1 (centres unmarked)	11.7
COc1ccc(C(=O)NCC2(c3ccccc3)CCCC2)c(OC)c1	-21.5
CC1=CC=CC2=NC(=O)CC(C)(C(=O)N(CC(=O)NC3CCCC3)c3ccc(F)cc3)N12 (centres unmarked)	11.1
Cc1nnc(C)c2c(C)n(-c3ccc(Cl)c(N)c3)c(C)c12	-45
COC(=O)c1c(NC(=O)c2ccc(S(=O)(=O)N3CCOCC3)cc2)sc2c1CCN(C)C2.Cl	-35

SMILES	hERG current change (%, negative = inhibition) at 10uM [%]
COc1ccc(C(=O)NCC2(c3ccccc3)CCOCC2)cc1[N+](=O)[O-]	-18.4
O=C(Nc1ccccc1C(=O)NCC1CCCO1)c1ccc(Cl)cc1Cl (centres unmarked)	-24.8
CCOc1ccc2nc(SCC(=O)NC3CCCc4ccccc43)sc2c1 (centres unmarked)	14.2
C=CCc1ccc(OCCCCN2CC(C)CC(C)C2)c(OC)c1.O=C(O)C(=O)O (centres unmarked)	-67
CCCCN1C(N)=NC[C@@H]1Cc1ccccc1	0.376
COc1ccc(C(=O)N2CCCC2)cc1	-2.88
O=C1c2cccc3c(O)ccc(c23)C(=O)N1c1ccc(Cl)cc1	-7.31
O=C(N[C@@H](Cc1c[nH]c2ccccc12)C(=O)NC1CC1)c1ccccc1Cl	7.79
CSc1cccc(-c2nnc(NC(=O)c3cccc(N4C(=O)CCC4=O)c3)o2)c1	5.94
CCOC(=O)c1c(NC(NC(=O)CF)C(Cl)(Cl)Cl)sc2c1CCCC2 (centres unmarked)	-6.42
COc1cc(CNc2ccc(N3CCOCC3)c(C(=O)O)c2)ccc1OCC(N)=O	-6.95
CC[C@@]1(O)C(=O)OCc2c1cc1n(c2=O)Cc2cc3c(N)cccc3nc2-1	8.96
Cc1sc2nc(C(C)C)nc(SCC(=O)NC3CC3)c2c1C	18.4
CC(C)Nc1nc(NC(C)C)nc(N(C)N)n1	-6.73
CCc1nnc(NC(=O)CSc2nncc(=O)n2N)s1	22.4
COc1ccc(NC(=O)CCCc2ccc(OC)c(C)c2)cc1	3.93
O=C1COc2ccc(C(=O)COC(=O)c3ccc(Cl)cc3[N+](=O)[O-])cc2N1	-34
COc1ccc(CN2CCN(C(=O)c3cccs3)CC2)cc1Br	-24.4
COc1ccccc1NC(=O)CSc1nnc(CCC(=O)Nc2ccccc2F)n1C	9.86
Cl.O=C(CNCCO)NC12CC3CC(CC(C3)C1)C2	13.2
